Over roughly 33,000 sequences, “E-score (-0.5 to 0.5)” has its median near -0.04; the highest 2% begin near 0.36. This is one part of the list.
Target: T1, Hmlalpha2 (UniProt P0CY09)
T1 sequence: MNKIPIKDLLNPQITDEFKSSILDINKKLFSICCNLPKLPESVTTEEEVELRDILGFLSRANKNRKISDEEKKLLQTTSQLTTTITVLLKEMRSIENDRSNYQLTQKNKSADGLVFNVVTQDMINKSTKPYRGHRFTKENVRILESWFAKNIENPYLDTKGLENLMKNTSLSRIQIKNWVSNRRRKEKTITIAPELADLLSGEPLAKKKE
Assay: PBM E-score (8-mer binding enrichment) (E-score (-0.5 to 0.5)); higher = stronger / more preferred TF binding; most listed sequences are background and not binding sites
Conditions: protein concentration: 200 nM; construct: GST-full length
Description: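 Universal 'all 10-mer' protein binding microarrays (Agilent AMADID 015681) probed with GST-tagged S. cerevisiae TFs (full-length or DBD) made by in vitro transcription/translation (PURExpress), about 100-200 nM. Bound TF was detected with fluorescent anti-GST. Each ungapped 8-mer (which stands for itself and its reverse complement) is scored by the PBM enrichment score (E-score), a modified Wilcoxon-Mann-Whitney statistic from -0.5 to +0.5, computed with the Universal PBM Analysis Suite. Scale: above 0.35 generally sequence-specific binding.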

In order of falling “PBM E-score” value:
1. CTTTTACA  0.453
2. AATAAATA  0.307
3. GGTGTAAC  0.288
4. GTGGTGTA  0.288
5. ATTAGATG  0.267
6. AAATCGTG  0.266
7. CTTGTATC  0.264
8. CGTTATAC  0.252
9. AAAAACTA  0.234
10. ACATGAGG  0.228
11. AGTAACTA  0.213
12. CATTCAAC  0.211
13. ATACAATA  0.21
14. ACTTCAAC  0.194
15. CAGTAATG  0.167
16. TGAGTTAA  0.139
17. ATACTCTA  0.136
18. AAAAAACG  0.126
19. GTGCATAA  0.121
20. TTAAAGAA  0.11
21. TACCGCGA  0.0959
22. ACCATGAA  0.0926
23. GCTGTAAC  0.0767
24. GGTGAAAA  0.0699
25. CAGATTTA  0.0684
26. AGGCGTTG  0.0651
27. AAGCAACT  0.0588
28. TAAGGGAA  0.051
29. GATGTCCA  0.0503
30. GCAGTAAC  0.0483
31. ACACCCAC  0.044
32. AGTAGTTG  0.041
33. GGAATTTA  0.0391
34. CGTGTGGA  0.0377
35. AGAACCGC  0.0282
36. CAAATAAG  0.0178
37. GTGAAAGA  0.0174
38. CACCTCAC  0.0105
39. GAGACACA  0.0105
40. ACCGTTGG  0.00354
41. ACCAATCT  0.00195
42. AATTGAGG  -0.0022
43. ACGGCGCA  -0.00223
44. AAGGCAAC  -0.00447
45. AAGATCCT  -0.014
46. TACCGCTA  -0.0146
47. TCACTAGA  -0.0174
48. ATATATCA  -0.0343
49. CATGAGAG  -0.0349
50. ACAGATCT  -0.0446
51. AACCTCCC  -0.0491
52. ACCAAACT  -0.0567
53. ACACCTCC  -0.0587
54. AGACACTC  -0.0658
55. AATCACCC  -0.0662
56. GAGATACC  -0.0698
57. AAAGATAC  -0.0716
58. CTATTCAG  -0.0751
59. CGCTAATC  -0.0758
60. GTAGGGCA  -0.0856
61. CAAGGAAG  -0.0889
62. GCGGATGA  -0.0895
63. ATGCCAGA  -0.0916
64. ATTCAGCC  -0.0921
65. GAATATGA  -0.0988
66. AACCCGTC  -0.105
67. GTCGCCGA  -0.113
68. ATGCACGG  -0.114
69. GAAAGAGC  -0.118
70. ATCCCTTG  -0.118
71. AGCGACTC  -0.119
72. CTGATGAC  -0.124
73. AGTTGGCC  -0.124
74. CGGTGATA  -0.135
75. TGAGTGAA  -0.137
76. GTGGTCCA  -0.14
77. GTGGATCA  -0.146
78. ACCGCCTC  -0.149
79. AGGGTCTA  -0.151
80. GCTTCCAC  -0.151
81. CCGTTAGC  -0.155
82. AGGCAGCG  -0.157
83. CGGGCGCC  -0.164
84. GCTAGTCA  -0.169
85. CTTAGTCC  -0.171
86. AATAAAGG  -0.171
87. CAGATTCC  -0.174
88. CTATCGCC  -0.178
89. AGCTCCTG  -0.184
90. GCAGGCCA  -0.191
91. CGCAGAGA  -0.195
92. TAGCCGAA  -0.202
93. CCCAAGAG  -0.203
94. ATCAGAAG  -0.212
95. ATCCCACA  -0.213
96. CATTAGTC  -0.22
97. CGAAAGAC  -0.224
98. GCCCAAGA  -0.23
99. CCTCGGCC  -0.237
100. AGAGGGGC  -0.241
101. AGGGCACC  -0.242
102. ACGGGACA  -0.252
103. ACGGGGTC  -0.254
104. CTGACCTC  -0.26
105. GCCGGACC  -0.265
106. ACCCTCGC  -0.268
107. AAGGTCGC  -0.278
108. CATCCGGC  -0.302
109. CCCACGGC  -0.328

From the supplement of paper PMC3334620
